In patent publication US20250388702A1 (Dana-Farber, published 2025):

B1: PD-1 scFv (EH13), human IgG4 (S228P) Fc (scFv)
scFv: [no letters for human IgG4 Fc with S228P (EU numbers)]GGGGAGGGGEVKLVESGGGLVQPGGSLKLSCAASGFTFSSFTLSWVRQTPEKRLEWVAYISYGGADTYYPDTVKGRFTIFRDNAKNTLYLQMSSLKSEDTARYYCARHGPYGKGDYYAMDYWGQGTSVTVSSGGGGSGGGGSGGGGSDIVLTQSPASLAVSLGQRATISCRASESVDDFGISFMNWFQQKPGQPPKLLIFAASKQGSGVPARFSGSGSGTDFSLNIHPMEEDDTAMYFCQQSKEVPWTFGGVTKLEIK
notes: One chain as printed: human IgG4 Fc, linker, VH, (G4S)3 linker, VL; Signal peptide placeholder left out; also called LP PD-1 scFv (TP-31852); EH13 scFV
B2: KIR3DL3 scFv (2F11), human IgG4 (S228P) Fc (scFv)
scFv: [no letters for human IgG4 Fc with S228P (EU numbers)]GGGGAGGGGDVQLVESGGGLVQPGGSRKLSCAASGFTFSYFGMHWVRRAPEKGLEWVAFISSDSTTIYYTDTVKGRFTISRDNPKNTLFLQMTSLRSEDTAIYYCARFYDGAMDYWGQGTSVTVSTGGGGSGGGGSGGGGSDIVMTQSQKFMSTSVGDRVSITCKASQSVRTAVAWYQQKPGQSPKVLIYLASNRHTGVPDRFTGSGSGTDFTLTISNVQSEDLADYFCLQHWNYPLTFGAGTKLELK
notes: One chain as printed: human IgG4 Fc, linker, VH, (G4S)3 linker, VL; Signal peptide placeholder left out; also called LP KIR3DL3 scFv (TP-31853); KIR3DL3 mAb 2F11 scFV

Key:
[1] = biological target: T1, Human PD1, Sino Biological Cat #: HPLC-10377-H08H (human, UniProt Q15116 in part); assay: BLI (Octet RED96), antibody captured on the sensor, antigen in solution, 1:1 model
T1 construct: Bought; also called PD-1 (Octet antigen)
T1 sequence (Q15116 25-167 limits assumed): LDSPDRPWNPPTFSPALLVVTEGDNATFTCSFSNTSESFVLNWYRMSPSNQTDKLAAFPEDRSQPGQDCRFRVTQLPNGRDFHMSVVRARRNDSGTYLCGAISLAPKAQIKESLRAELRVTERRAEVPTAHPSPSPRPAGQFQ
Description: (§1) Binding experiments were performed on Octat Red af 25″° C. The human antibodies were loaded onto Anti-higG Fe Capture biosensors and the mouse antibodies were loaded onto Anti-migG Fe Capture biosensors both for 300 seconds. The ligand loaded sensors were dipped into a 3-fold series dilution (starting at 300 nad) of the antigens (PD-1 and KIR3DL3) for 240 seconds followed by dissociation for 400 seconds. Kinetic constanta were calculated using a monovalent (1:1) binding model Antigen: Haman PD1, Sino Biological Cat #: HPLC-10377-HOSH.

[2] = biological target: T2, Human KIR3DL3, Sino Biological Cat#: 16055-H08H (human, UniProt Q8N743 26-322); assay: as above
T2 construct: Bought soluble antigen; also called KIR3DL3 (Octet antigen)
T2 sequence (Q8N743 other isoform, or with tags, fused parts or gaps H08H H08H limits assumed): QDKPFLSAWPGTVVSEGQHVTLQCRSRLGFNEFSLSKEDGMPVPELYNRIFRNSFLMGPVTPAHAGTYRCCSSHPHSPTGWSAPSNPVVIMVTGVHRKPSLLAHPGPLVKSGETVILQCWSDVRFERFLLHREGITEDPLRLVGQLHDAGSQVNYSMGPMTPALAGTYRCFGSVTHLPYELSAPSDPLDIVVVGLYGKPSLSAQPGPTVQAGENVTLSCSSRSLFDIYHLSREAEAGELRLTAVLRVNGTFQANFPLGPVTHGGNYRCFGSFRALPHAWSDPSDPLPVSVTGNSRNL
Description: as §1

Binder | Kd [1] [nM] | koff [1] [s⁻¹] | kon [1] [M⁻¹ s⁻¹] | Kd [2] [nM] | koff [2] [s⁻¹] | kon [2] [M⁻¹ s⁻¹]
B1 | 31.6 | 0.00341 | 108000 |  |  | 
B2 |  |  |  | 0.268 | 4.42e-05 | 165000
